The chains are these.
B1: PD1/LAG3 0927 (bispecific antibody, human IgG1, kappa)
heavy 1: DIVMTQSPDSLAVSLGERATINCKASESVDTSDNSFIHWYQQKPGQSPKLLIYRSSTLESGVPDRFSGSGSGTDFTLTISSLQAEDVAVYYCQQNYDVPWTFGQGTKVEIKSSASTKGPSVFPLAPSSKSTSGGTAALGCLVKDYFPEPVTVSWNSGALTSGVHTFPAVLQSSGLYSLSSVVTVPSSSLGTQTYICNVNHKPSNTKVDKKV[sequence of human IgG1 Fc with changes not given]
heavy 2: EVQLLESGGGLVQPGGSLRLSCAASGFIFDDYTMNWVRQAPGKGLEWVAVISWDGGGTYYTDSVKGRFTISRDDFKNTLYLQMNSLRAEDTAVYYCAKGLTDTTLYGSDYWGQGTLVTVSSASTKGPSVFPLAPSSKSTSGGTAALGCLVEDYFPEPVTVSWNSGALTSGVHTFPAVLQSSGLYSLSSVVTVPSSSLGTQTYICNVNHKPSNTKVDEKVEPKSCDKTHTCPPCPAPEAAGGPSVFLFPPKPKDTLMISRTPEVTCVVVDVSHEDPEVKFNWYVDGVEVHNAKTKPREEQYNSTYRVVSVLTVLHQDWLNGKEYKCKVSNKALGAPIEKTISKAKGQPREPQVCTLPPSRDELTKNQVSLSCAVKGFYPSDIAVEWESNGQPENNYKTTPPVLDSDGSFFLVSKLTVDKSRWQQGNVFSCSVMHEALHNHYTQKSLSLSPGK
light 1: EVQLLESGGGLVQPGGSLRLSCAASGFSFSSYTMSWVRQAPGKGLEWVATISGGGRDIYYPDSVKGRFTISRDNSKNTLYLQMNSLRAEDTAVYYCVLLTGRVYFALDSWGQGTLVTVSSASVAAPSVFIFPPSDEQLKSGTASVVCLLNNFYPREAKVQWKVDNALQSGNSQESVTEQDSKDSTYSLSSTLTLSKADYEKHKVYACEVTHQGLSSPVTKSFNRGEC
light 2: DIQMTQSPSSLSASVGDRVTITCRASQSISSYLNWYQQKPGKAPKLLIYAASTLQSGVPSRFSGSGSGTDFTLTISSLQPEDFATYYCQQTYSSPLTFGGGTKVEIKRTVAAPSVFIFPPSDRKLKSGTASVVCLLNNFYPREAKVQWKVDNALQSGNSQESVTEQDSKDSTYSLSSTLTLSKADYEKHKVYACEVTHQGLSSPVTKSFNRGEC
B2: PD1/LAG3 8970 (bispecific antibody, human IgG1, kappa)
heavy: EVQLLESGGGLVQPGGSLRLSCAASGFIFDDYTMNWVRQAPGKGLEWVAVISWDGGGTYYTDSVKGRFTISRDDFKNTLYLQMNSLRAEDTAVYYCAKGLTDTTLYGSDYWGQGTLVTVSSASTKGPSVFPLAPSSKSTSGGTAALGCLVEDYFPEPVTVSWNSGALTSGVHTFPAVLQSSGLYSLSSVVTVPSSSLGTQTYICNVNHKPSNTKVDEKV[sequence of human IgG1 Fc with changes not given]GGSGGGGSGGGGSGGGGSEVQLLESGGGLVQPGGSLRLSCAASGFSFSSYTMSWVRQAPGKGLEWVATISGGGRDIYYPDSVKGRFTISRDNSKNTLYLQMNSLRAEDTAVYYCVLLTGRVYFALDSWGQGTLVTVSSASVAAPSVFIFPPSDEQLKSGTASVVCLLNNFYPREAKVQWKVDNALQSGNSQESVTEQDSKDSTYSLSSTLTLSKADYEKHKVYACEVTHQGLSSPVTKSFNRGEC
light 1: DIVMTQSPDSLAVSLGERATINCKASESVDTSDNSFIHWYQQKPGQSPKLLIYRSSTLESGVPDRFSGSGSGTDFTLTISSLQAEDVAVYYCQQNYDVPWTFGQGTKVEIKSSASTKGPSVFPLAPSSKSTSGGTAALGCLVKDYFPEPVTVSWNSGALTSGVHTFPAVLQSSGLYSLSSVVTVPSSSLGTQTYICNVNHKPSNTKVDKKVEPKSC
light 2: DIQMTQSPSSLSASVGDRVTITCRASQSISSYLNWYQQKPGKAPKLLIYAASTLQSGVPSRFSGSGSGTDFTLTISSLQPEDFATYYCQQTYSSPLTFGGGTKVEIKRTVAAPSVFIFPPSDRKLKSGTASVVCLLNNFYPREAKVQWKVDNALQSGNSQESVTEQDSKDSTYSLSSTLTLSKADYEKHKVYACEVTHQGLSSPVTKSFNRGEC
B3: PD1/LAG3 8310 (bispecific antibody, human IgG1, kappa)
heavy 1: EVQLLESGGGLVQPGGSLRLSCAASGFIFDDYTMNWVRQAPGKGLEWVAVISWDGGGTYYTDSVKGRFTISRDDFKNTLYLQMNSLRAEDTAVYYCAKGLTDTTLYGSDYWGQGTLVTVSSASTKGPSVFPLAPSSKSTSGGTAALGCLVEDYFPEPVTVSWNSGALTSGVHTFPAVLQSSGLYSLSSVVTVPSSSLGTQTYICNVNHKPSNTKVDEKV[sequence of human IgG1 Fc with changes not given]GGSGGGGSGGGGSGGGGSEVQLLESGGGLVQPGGSLRLSCAASGFSFSSYTMSWVRQAPGKGLEWVATISGGGRDIYYPDSVKGRFTISRDNSKNTLYLQMNSLRAEDTAVYYCVLLTGRVYFALDSWGQGTLVTVSSASVAAPSVFIFPPSDEQLKSGTASVVCLLNNFYPREAKVQWKVDNALQSGNSQESVTEQDSKDSTYSLSSTLTLSKADYEKHKVYACEVTHQGLSSPVTKSFNRGEC
heavy 2: EVQLLESGGGLVQPGGSLRLSCAASGFIFDDYTMNWVRQAPGKGLEWVAVISWDGGGTYYTDSVKGRFTISRDDFKNTLYLQMNSLRAEDTAVYYCAKGLTDTTLYGSDYWGQGTLVTVSSASTKGPSVFPLAPSSKSTSGGTAALGCLVEDYFPEPVTVSWNSGALTSGVHTFPAVLQSSGLYSLSSVVTVPSSSLGTQTYICNVNHKPSNTKVDEKVEPKSCDKTHTCPPCPAPEAAGGPSVFLFPPKPKDTLMISRTPEVTCVVVDVSHEDPEVKFNWYVDGVEVHNAKTKPREEQYNSTYRVVSVLTVLHQDWLNGKEYKCKVSNKALGAPIEKTISKAKGQPREPQVCTLPPSRDELTKNQVSLSCAVKGFYPSDIAVEWESNGQPENNYKTTPPVLDSDGSFFLVSKLTVDKSRWQQGNVFSCSVMHEALHNHYTQKSLSLSPGK
light 1: DIVMTQSPDSLAVSLGERATINCKASESVDTSDNSFIHWYQQKPGQSPKLLIYRSSTLESGVPDRFSGSGSGTDFTLTISSLQAEDVAVYYCQQNYDVPWTFGQGTKVEIKSSASTKGPSVFPLAPSSKSTSGGTAALGCLVKDYFPEPVTVSWNSGALTSGVHTFPAVLQSSGLYSLSSVVTVPSSSLGTQTYICNVNHKPSNTKVDKKVEPKSC
light 2: DIQMTQSPSSLSASVGDRVTITCRASQSISSYLNWYQQKPGKAPKLLIYAASTLQSGVPSRFSGSGSGTDFTLTISSLQPEDFATYYCQQTYSSPLTFGGGTKVEIKRTVAAPSVFIFPPSDRKLKSGTASVVCLLNNFYPREAKVQWKVDNALQSGNSQESVTEQDSKDSTYSLSSTLTLSKADYEKHKVYACEVTHQGLSSPVTKSFNRGEC

In the assay the target is LAG3 on PD1+LAG3+ human U2OS cells (Homo sapiens (Human)), P18627. Nature of the assay: cell-based or functional assay.
LAG3 on PD1+LAG3+ human U2OS cells (Homo sapiens (Human)), P18627, sequence (P18627 29-525 limits assumed, form in doubt): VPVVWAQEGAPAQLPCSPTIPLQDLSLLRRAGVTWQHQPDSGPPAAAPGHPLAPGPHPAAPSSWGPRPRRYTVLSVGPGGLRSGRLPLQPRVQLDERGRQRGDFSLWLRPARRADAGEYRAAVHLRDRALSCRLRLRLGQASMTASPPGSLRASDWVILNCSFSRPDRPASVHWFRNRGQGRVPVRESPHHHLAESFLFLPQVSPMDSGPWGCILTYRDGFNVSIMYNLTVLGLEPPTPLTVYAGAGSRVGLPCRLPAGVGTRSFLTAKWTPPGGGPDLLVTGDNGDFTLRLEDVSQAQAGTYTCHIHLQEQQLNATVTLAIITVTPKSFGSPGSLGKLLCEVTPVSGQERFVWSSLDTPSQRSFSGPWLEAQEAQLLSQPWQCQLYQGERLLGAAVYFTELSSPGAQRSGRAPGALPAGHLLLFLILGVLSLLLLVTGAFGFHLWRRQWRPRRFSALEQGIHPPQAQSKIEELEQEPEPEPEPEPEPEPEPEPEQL
B1 came in with an EC50 [pM], dimerization binding assay (chemoluminescence) of 41 pM. Next, B2: 83 pM; B3: 114 pM.

Values taken from patent US20220387586A1.
